Measured values reported in PMC12040169 (PLOS Biology, 2025).
The list shows a part of the results.

The molecules below were run on T1, C. trachomatis L2/434/Bu expressing GFP (CTL2-GFP). Conditions: total inclusion area; 28.5 h, 10 µM; inhibitor.
T1 construct: L2/434/Bu GFP intracellular growth in HeLa cells
Design: species or system HeLa; C. trachomatis total inclusion area by high-content imaging, normalised to DMSO
Method in brief: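 After bulk GFP and resorufin fluorescence reads, cells were fixed, stained with Hoechst and imaged by high-content microscopy. Inclusion area and number (GFP) stood in for chlamydial growth, nuclei count (Hoechst) for host cell viability. MICs were derived as for the bulk readout.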

Row | SMILES | % of control remaining
1 | O=C(O)/C=C/C(=O)N(Cc1ccc2c(c1)OCO2)C1CC(=O)N(c2ccccc2)C1=O (stereo not drawn) [CBK262786] | 99.5605
2 | CCOC(=O)c1sc(Sc2nnc(C(F)(F)F)n2C)c2c1CC(C)(C)CC2=O [CBK005649] | 75.9582
3 | O=C(CC1CCS(=O)(=O)C1)NC1(c2ccc(Cl)cc2)CC1 (stereo not drawn) [CBK282773] | 106.009
4 | CN1CCC(N2CCN(C(=O)c3ccc(-c4cccc(C(F)(F)F)c4)o3)CC2)CC1 [CBK149085] | 79.9801
5 | CCC(C)(C)c1ccc(S(=O)(=O)N2CCCN(Cc3c(-c4ccccc4)noc3C)CC2)cc1 [CBK062888] | 92.099
6 | OC1CCC(Nc2nc(-c3ccccc3)cn3ccnc23)CC1 (stereo not drawn) [CBK037329] | 126.125
7 | O=C(O)CCSc1ccnc2ccccc12 [CBK122524C] | 95.7123
8 | NC(=O)CSc1nnc(-c2ccncc2)[nH]1 [CBK026179] | 43.6967
9 | CC(C)(C)c1ccc(/C=C/C(=O)n2cccn2)cc1 [CBK263645] | 105.484
10 | Cc1ccc(CN2C[C@@H](N)[C@H](c3cn(C)c4cnccc34)C2)o1 [CBK285180] | 94.6367
11 | Nc1cccc(-c2cc(Nc3ccc(C4CCCCC4)cc3)ncn2)c1 [CBK091191] | 104.257
12 | Cc1[nH]c2ccccc2c1C(=O)CSc1n[nH]c(N)n1 [CBK268056] | 86.5615
13 | CC(=O)c1ccc(S(=O)(=O)N2CCCCC2CNC(=O)c2ccco2)cc1 (stereo not drawn) [CBK051472] | 69.7146
14 | COc1nccnc1N1CCN(CC(N)=O)CC1 [CBK084219] | 92.0281
15 | Cc1cc(NC(=O)CC2CC2)c2ccccc2n1 [CBK116257] | 84.6215
16 | CCC(CCO)CNc1ncnc2ccc(S(C)(=O)=O)cc12 (stereo not drawn) [CBK305157] | 50.7782
17 | O=C(NC1(CN2CCCCC2)CCCCC1)NS(=O)(=O)c1ccc(Cl)cc1 [CBK022858] | 87.485
18 | COC(=O)c1cc(C)sc1NC(=S)Nc1ccccc1[N+](=O)[O-] [CBK267047] | 131.648
19 | COc1ccc(CN2CCCC(c3nccnc3-c3cccc(NC(C)=O)c3)C2)cc1 (stereo not drawn) [CBK286135] | 101.063
20 | Cc1ccc(C(=O)C(C)OC(=O)c2cc(-c3ccccc3)nc3ccccc23)cc1 (stereo not drawn) [CBK264067] | 79.596
21 | CCS(=O)(=O)N1CCN(C(=O)c2ccc3nc(C)c(N(CCOC)Cc4ccc(OC)cc4)n3c2)CC1 [CBK146153] | 136.171
22 | CCSC1CCC(N(C)CC(=O)NCc2ccco2)C1 (stereo not drawn) [CBK304823] | 73.8491
23 | COc1ccc(C(=O)c2ccc(N3CCN(C4CC(=O)NC4=O)CC3)cc2)cc1F (stereo not drawn) [CBK268909] | 105.429
24 | COc1ccc(Nc2cc(-c3cc(OC)c(OC)c(OC)c3)ncn2)c(OC)c1 [CBK090759] | 83.9789
25 | CCNC(=O)N1CC2(CCN(CCC(N)=O)CC2)c2ccccc21 [CBK144598T] | 84.2147
26 | O=S(=O)(c1ccccc1)c1cncc(N2CCNCC2)n1 [CBK051078C] | 76.1369

Row | SMILES | % of control remaining
27 | COc1ccc(-c2cc(C(=O)NCC3CCNCC3)cnc2-c2ccc(Cl)cc2)cn1 [CBK036700] | 108.459
28 | CCOc1ccsc1C(=O)Nc1c(OC)cc(F)cc1OC1CCNCC1 [CBK050292T] | 103.824
29 | COC(=O)[C@@H]1CN(C(=O)Nc2ccccc2)CCN1S(C)(=O)=O [CBK289611] | 100.972
30 | CN1CCN(S(=O)(=O)c2ccc(F)cc2)CC1 [CBK050491] | 94.7417
31 | CC1=NN(c2ccccc2)C(=O)C1C(=O)c1ccc(Br)cc1 (stereo not drawn) [CBK067771] | 100.682
32 | CCc1c(C(=O)NCCn2ccnc2C)[nH]c2ccc(F)cc12 [CBK283314] | 77.3671
33 | CCCc1nn(CC(=O)NC2CCC2)c(=O)c2cc3ccsc3n12 [CBK284194] | 62.5747
34 | Cc1ccc(CS(=O)(=O)N(C)C2CCN(C)C(C)C2)c(F)c1 (stereo not drawn) [CBK305484] | 105.6
35 | CCCc1c(O)nc(SCC(=O)NCc2ccco2)[nH]c1=O [CBK073278] | 88.2407
36 | COc1cc(-c2cncc(NC(C)CCCC(C)(C)O)n2)cc(OC)c1OC (stereo not drawn) [CBK065481] | 124.24
37 | Cc1nnc(Sc2nc3ccccc3nc2N2CCCC2)s1 [CBK093751] | 86.9713
38 | COC(=O)CN1C(=O)S/C(=C/c2ccc(OCc3cccc(C(=O)O)c3)c(Cl)c2)C1=O [CBK265262] | 109.834
39 | NCCCc1c(-c2ccc(Cl)cc2Cl)[nH][nH]c1=O [CBK288367] | 89.3121
40 | Cc1cc(C)nc(N2CCC(C(=O)NCc3ccc(Cl)cc3)CC2)n1 [CBK136319] | 78.9114
41 | COc1ccccc1C(=O)N1CCN(c2nc3c(s2)c(C)nn3C)CC1 [CBK306836] | 92.6063
42 | Cc1c(C(=O)N2CCC(n3cncn3)CC2)sc2cccc(F)c12 [CBK305520] | 62.455
43 | COc1ccc2oc(-c3ccccc3)c(C(=O)Nc3nccs3)c2c1 [CBK287767] | 90.2155
44 | CCOC(=O)c1cccc(-c2ccc(OC)c(OC)c2)n1 [CBK149247] | 93.5867
45 | CCc1ccccc1Nc1nnc(SC(C)C(=O)N2CCCC2)s1 (stereo not drawn) [CBK295197] | 100.949
46 | COc1ccc(/C=C(\C)C(=O)Nc2c(OC)cc(F)cc2OC2CCNCC2)cc1OC [CBK050353T] | 78.3971
47 | O=C(CN1CCN(S(=O)(=O)c2ccc(F)cc2)CC1)Nc1cccc(C(F)(F)F)c1 [CBK071925] | 77.5703
48 | COc1ccc(C(CNC(=O)Cn2c(-c3cccc(C)c3)n[nH]c2=S)N2CCOCC2)cc1OC (stereo not drawn) [CBK297900] | 108.418
49 | CC(=O)NCCCSCc1cn2cccc(C)c2n1 [CBK304809] | 53.6135
50 | COc1cc(CNC(=O)c2cccnc2Sc2ccc(Cl)cc2)ccn1 [CBK297755] | 80.3105
51 | CCCCOc1nccnc1-c1cnc(OC)nc1OC [CBK106756] | 103.447
